Assay results published in paper PMC5892938.
This is one part of the list. At the low end of the ranking the order means little.
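Note: DESeq read counts versus GST-SBP nonspecific binding control pulldown.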

What follows are sequences tested against GST-SBP-SLBP (stem-loop binding protein) (UniProt Q14493) (assay: targeted RNA Bind-n-Seq). Conditions: RBNS binding buffer: 25 mM Tris pH 7.5, 150 mM KCl, 3 mM MgCl2, 0.1% Tween, 0.5 mg/mL BSA, 1 mM DTT; 27 nM protein, 750 pM RNA pool; temperature not stated; high values mean tight binding.
“GGUCACGUCUCAAUCAACUCUUAAGAGGGGGGGAAAACCCCUUUACCCUCGUAUUCAACAGCUCGCAGUCAAG” gave a binding signal (log2 fold change) of -0.00706. “GGUCACGUCUCAAUCAACUCAACAGAGGGGGGGAAAACCCCUUUACCCUCAACAUCAACAGCUCGCAGUCAAG” showed a binding signal (log2 fold change) of -0.407. “GGUCACGUCUCAAUCAACUCUACUUCCAGGGAAAGCCCUGGUUAACUCAACAGCUCGCAGUCAAG” showed a binding signal (log2 fold change) of 0.0162. “GGUCACGUCUCAAUCAACUCAAUCUCAGGAGUUUGCUCCUGCUAUCUCAACAGCUCGCAGUCAAG” showed a binding signal (log2 fold change) of 0.192. Work on “GGUCACGUCUCAAUCAACUCAAUCUCAGGAGUUUUCUCCUGUUAUCUCAACAGCUCGCAGUCAAG” yielded a binding signal (log2 fold change) of 0.0472. “GGUCACGUCUCAAUCAACUCUUUUUCCAGGGAAACCCCUGGUUUAUUCAACAGCUCGCAGUCAAG” was tested, and the binding signal (log2 fold change) was -0.105. With “GGUCACGUCUCAAUCAACUCCUUAGAGGGGGGGAAAACCCCUUUGCCCUCCAAAUCAACAGCUCGCAGUCAAG” the binding signal (log2 fold change) was -0.0252. With “GGUCACGUCUCAAUCAACUCAAUCCCCAGGGAAAACCCUGGCAUACUCAACAGCUCGCAGUCAAG” the binding signal (log2 fold change) was 0.351. In the case of “GGUCACGUCUCAAUCAACUCAACUUCCAGGGAAAGCCCUGGCUUUUUCAACAGCUCGCAGUCAAG”, the binding signal (log2 fold change) is reported as 0.142. For “GGUCACGUCUCAAUCAACUCAAUCUCAGGAGUUUACUCCUGCUUUUUCAACAGCUCGCAGUCAAG”, the binding signal (log2 fold change) was -0.242. Work on “GGUCACGUCUCAAUCAACUCUUCUUCCAGGGAAACCCCUGGCAAACUCAACAGCUCGCAGUCAAG” yielded a binding signal (log2 fold change) of 0.0286. “GGUCACGUCUCAAUCAACUCAGUCUCCAGGGAAAGCCCUGGCUAAUUCAACAGCUCGCAGUCAAG” gave a binding signal (log2 fold change) of -0.355. “GGUCACGUCUCAAUCAACUCCAAAGAGGGGGGGAAAACCCCUUUACCCUCCGUUUCAACAGCUCGCAGUCAAG” was tested, and the binding signal (log2 fold change) was 0.395. Work on “GGUCACGUCUCAAUCAACUCAAAAGAGGGGGGGAAAACCCCUUUACCCUCAUCGUCAACAGCUCGCAGUCAAG” yielded a binding signal (log2 fold change) of -0.161. “GGUCACGUCUCAAUCAACUCAUUCCCAGGAGUUUCCUCCUGUUAUCUCAACAGCUCGCAGUCAAG” showed a binding signal (log2 fold change) of 0.136. “GGUCACGUCUCAAUCAACUCAACAGAGGGGGGGAAAACCCCUUUGCCCUCCAUAUCAACAGCUCGCAGUCAAG” was tested, and the binding signal (log2 fold change) was -0.0653. Sequence “GGUCACGUCUCAAUCAACUCCCUAGAGGGGGGGAAAACCCCUUUGCCCUCAUUAUCAACAGCUCGCAGUCAAG” has a binding signal (log2 fold change) of -0.0293. “GGUCACGUCUCAAUCAACUCUUCUUCCAGGGAAAACCCUGGCUAUCUCAACAGCUCGCAGUCAAG” gave a binding signal (log2 fold change) of 0.132. Sequence “GGUCACGUCUCAAUCAACUCUUCUUCCAGGGAAACCCCUGGUAUUUUCAACAGCUCGCAGUCAAG” has a binding signal (log2 fold change) of -0.245. For “GGUCACGUCUCAAUCAACUCAGUCUCAGGAGUUUUCUCCUGCUUUUUCAACAGCUCGCAGUCAAG”, the binding signal (log2 fold change) was 0.0224. For “GGUCACGUCUCAAUCAACUCAACUCCCAGGGAAAUCCCUGGCUAUCUCAACAGCUCGCAGUCAAG”, the binding signal (log2 fold change) was -0.215. “GGUCACGUCUCAAUCAACUCAUCUUCCAGGGAAAACCCUGGCUUUCUCAACAGCUCGCAGUCAAG” gave a binding signal (log2 fold change) of 0.29. In the case of “GGUCACGUCUCAAUCAACUCACUCGAGGGGGGGAAAACCCCUUUACCCUCAUCCUCAACAGCUCGCAGUCAAG”, the binding signal (log2 fold change) is reported as 0.0215. In the case of “GGUCACGUCUCAAUCAACUCAUUUUCCAGGGAAACCCCUGGCAUUCUCAACAGCUCGCAGUCAAG”, the binding signal (log2 fold change) is reported as -0.189. “GGUCACGUCUCAAUCAACUCUUUUCCAGGAGUUUCCUCCUGCUUUUUCAACAGCUCGCAGUCAAG” gave a binding signal (log2 fold change) of -0.165. “GGUCACGUCUCAAUCAACUCUAUCUCCAGGGAAAACCCUGGCAUAUUCAACAGCUCGCAGUCAAG” gave a binding signal (log2 fold change) of -0.0315. For “GGUCACGUCUCAAUCAACUCAAUUUCAGGAGUUUGCUCCUGUUUUCUCAACAGCUCGCAGUCAAG”, the binding signal (log2 fold change) was -0.0879. Work on “GGUCACGUCUCAAUCAACUCAAUCGCAGGAGUUUCCUCCUGGUAAUUCAACAGCUCGCAGUCAAG” yielded a binding signal (log2 fold change) of -0.00627. With “GGUCACGUCUCAAUCAACUCUUCCCCCAGGGAAAACCCUGGUUUUCUCAACAGCUCGCAGUCAAG” the binding signal (log2 fold change) was -0.058. “GGUCACGUCUCAAUCAACUCUUUCGAGGGGGGGAAAACCCCUUUACCCUCCAUAUCAACAGCUCGCAGUCAAG” showed a binding signal (log2 fold change) of -0.474. “GGUCACGUCUCAAUCAACUCUAAAGAGGGGGGGAAAACCCCUUUGCCCUCAUCCUCAACAGCUCGCAGUCAAG” gave a binding signal (log2 fold change) of -0.0198. “GGUCACGUCUCAAUCAACUCCUCAGAGGGGGGGAAAACCCCUUUACCCUCCAUAUCAACAGCUCGCAGUCAAG” showed a binding signal (log2 fold change) of -0.095. “GGUCACGUCUCAAUCAACUCUUUUUCCAGGGAAAACCCUGGCAAUCUCAACAGCUCGCAGUCAAG” was tested, and the binding signal (log2 fold change) was 0.0719. Sequence “GGUCACGUCUCAAUCAACUCAUUCUCCAGGGAAAUCCCUGGCUUAUUCAACAGCUCGCAGUCAAG” has a binding signal (log2 fold change) of -0.0612. Sequence “GGUCACGUCUCAAUCAACUCAUUUUCAGGAGUUUACUCCUGUAUUCUCAACAGCUCGCAGUCAAG” has a binding signal (log2 fold change) of 0.191. In the case of “GGUCACGUCUCAAUCAACUCUAUUCCCAGGGAAAGCCCUGGUUUAUUCAACAGCUCGCAGUCAAG”, the binding signal (log2 fold change) is reported as -0.21. In the case of “GGUCACGUCUCAAUCAACUCUUCUCCCAGGGAAAACCCUGGUUAUGUCAACAGCUCGCAGUCAAG”, the binding signal (log2 fold change) is reported as -0.132. In the case of “GGUCACGUCUCAAUCAACUCAUUCCCCAGGGAAAACCCUGGUUAACUCAACAGCUCGCAGUCAAG”, the binding signal (log2 fold change) is reported as 0.0487. Work on “GGUCACGUCUCAAUCAACUCAAUUUCAGGAGUUUACUCCUGCAAUCUCAACAGCUCGCAGUCAAG” yielded a binding signal (log2 fold change) of 0.189. Sequence “GGUCACGUCUCAAUCAACUCAAUCCCAGGAGUUUUCUCCUGCAAACUCAACAGCUCGCAGUCAAG” has a binding signal (log2 fold change) of 0.0764. With “GGUCACGUCUCAAUCAACUCAGUCCCAGGAGUUUGCUCCUGUAUAUUCAACAGCUCGCAGUCAAG” the binding signal (log2 fold change) was -0.27. Work on “GGUCACGUCUCAAUCAACUCAUCCUCCAGGGAAACCCCUGGCAUAUUCAACAGCUCGCAGUCAAG” yielded a binding signal (log2 fold change) of -0.00158. Work on “GGUCACGUCUCAAUCAACUCUAGUCCAGGAGUUUUCUCCUGUAAUCUCAACAGCUCGCAGUCAAG” yielded a binding signal (log2 fold change) of 0.15. “GGUCACGUCUCAAUCAACUCUUCAGAGGGGGGGAAAACCCCUUUACCCUCACCUUCAACAGCUCGCAGUCAAG” gave a binding signal (log2 fold change) of -0.485. Sequence “GGUCACGUCUCAAUCAACUCAGUCCCAGGAGUUUUCUCCUGUAUAUUCAACAGCUCGCAGUCAAG” has a binding signal (log2 fold change) of 0.0845. “GGUCACGUCUCAAUCAACUCUACAGAGGGGGGGAAAACCCCUUUACCCUCAAAAUCAACAGCUCGCAGUCAAG” gave a binding signal (log2 fold change) of -0.000381. Sequence “GGUCACGUCUCAAUCAACUCUAUCUCCAGGGAAAGCCCUGGUUAACUCAACAGCUCGCAGUCAAG” has a binding signal (log2 fold change) of -0.179.
